The record followed here is the RNAGym collection of RNA variant scans (doi:10.1073/pnas.2313332121).

Variants at the floor of the assay are shown more often than the library holds them.

First the molecules themselves.
B1: TPR 5TU (parent)
chain: GGAUCUUCUCGAUCUAACAAAAAAGACAAAUCUGCCACAAAGCUUGAGAGCAUCUUCGGAUGCAGAGGCGGCAGCCUUCGGUGGCGCGAUAGCGCCAACGUUCUCAACUAUGACACGCAAAACGCGUGCUCCGUUGAAUGGAGUUUAUCAUG

The series covers variants of B1. Nature of the series: polymerase ribozyme fitness, log enrichment relative to wild type (log ratio); higher = more active; in vitro selection for triplet polymerase activity. In outline: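 Streptavidin-bead capture of gel-excised extended constructs, followed by RT-PCR, closed a single triplicate in vitro selection round. That round began by annealing PCR-built, transcribed mutant libraries of each subunit of a heterodimeric triplet polymerase ribozyme with a biotinylated primer, the partner subunit and triplets, then incubating them frozen at −7 °C. After Illumina sequencing of inputs and outputs, genotypes needed ≥10 input reads and ≥1 read per output. Fitness is the base-2 logarithm of genotype enrichment over wild-type enrichment, using inverse-variance-weighted replicate averages.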
For GGAUCUUCUCGAUCUAACAAAAAAGACAAAUCUGCCACAAAGCUUGAGAGCAUCUUCGCAUGCAGAGGCGGCAGCCUUUGGUGGCGCGAUAGAGCCAACGUUCUCAACUAUGACACGCAAAACGCGUGCUCCGUUGAAUGAAGUUUAUCAUG [G59C C79U C93A G141A], the “polymerase ribozyme fitness (log ratio)” value was at most -4.2.
The result for GGAUCUUCUCGAUCUAACAAAAAAGACAAAUCUGCCACAAAGCUUGAGAGCAUCUUCGCAUGCAGAGGCGGCAGCCUUCGGUGGCGCGAUAGCGCCAUCGUUCUCAACUAUGACACGCAAAACGAGUGCUCCGUUGAAUCGAGUUUAUCAUG [G59C A98U C125A G140C] reads at most -4.2; that for GGAUCUUCUCGAUCUAACAAAAAAGACAAAUCUGCCACAAAGCUUGAGAGCAUCUUCGAAUGCAGAGGCGGCAGCCUUCUGUGCCGCGAUAGCGCCAACGUUCUCAACUAUGACACGCAAAACGCGUGCUCCGUUGAAUUGAGUUUAUCAUG [G59A G80U G84C G140U], at most -4.2.
For the variant GGAUCUUCUCGAUCUAACAAAAAAGACAAAUCUGCCACAAAGCUUGAGAGCAUCUUCGAAUGCAGAAGCGGCAGCCUUCGGUGGCGCGAUAGCGCCAACGUUCUCAAUUAUGACACGCAAAACGCGUGCUCCGUUGAAUGGAGUUUAUCAUG [G59A G67A C108U], the “polymerase ribozyme fitness (log ratio)” value is at most -4.2.
Regarding GGAUCUUCUCGAUCUAACAAAAAAGACAAAUCUGCCACAAAGCUUGAGAGCAUCUUCGCAUGCAGAGGCGGCAGCCUUCGGUGGCGAGAUAGCGCCAACGUUCUCAACAAUGACACGCAAAACGCGUGCUCCCUUGAAUGGAGUUUAUCAUG [G59C C87A U109A G133C], the “polymerase ribozyme fitness (log ratio)” value was at most -4.2.
In the case of GGAUCUUCUCGAUCUAACAAAAAAGACAAAUCUGCCACAAAGCUUGAGAGCAUCUUCGAAUGCAGAGGCGGCAGCCUGCGGUGGCGGGAUAGCGCCAACGUUCUCUACUAUGACACGCAAAACGCGUGCUCCGUUGAAUGGAGUUUAUCAUG [G59A U78G C87G A106U], the “polymerase ribozyme fitness (log ratio)” value is at most -4.2.
On to GGAUCUUCUCGAUCUAACAAAAAAGACAAAUCUGCCACAAAGCUUGAGAGCAUCUUCGCAUGCAGAGGCGGCAGCAUUCGGUGGCGUGAUAGCGCCAACGUUCUCAACUAUGACACGCAAAACGCGUGCUCCGUUGAAUGGAGUUUCUCAUG [G59C C76A C87U A147C], for which the “polymerase ribozyme fitness (log ratio)” value is -2.29.
Take GGAUCUUCUCGAUCUAACAAAAAAGACAAAUCUGCCACAAAGCUUGAGAGCAUCUUCGCCUGCAGAGGUGGCAGCCAUCGGUGGCGCGAUAGCGCCAACGGUCUCAACUAUGACACGCAAAACGCGUGCUCCGUUGAAUGGAGUUUAUCAUG [G59C A60C C69U U77A U101G]: the “polymerase ribozyme fitness (log ratio)” value was at most -4.2.
Take GGAUCUUCUCGAUCUAACAAAAAAGACAAAUCUGCCACAAAGCUUGAGAGCAUCUUCGCAUGUAGAGGCGGCAGCCUUCGGUGGCGUGAUAGCGCCAACGUUCUCAUCUAUGACACGCAAAACGCGUGCUCCGUUGAAUGGAGUUUAUCAUG [G59C C63U C87U A107U]: the “polymerase ribozyme fitness (log ratio)” value is -3.81.
Turning to GGAUCUUCUCGAUCUAACAAAAAAGACAAAUCUGCCACAAAGCUUGAGAGCAUCUUCGCAUACAGAGGCGGCAGCCUUCGGUGGCGCAAUAGCGCCAACGUUCUCAACUAUGACACGCAAAACGCGUGCUCCGUUGAAUGGAGUUUAUCAUG [G59C G62A G88A], the “polymerase ribozyme fitness (log ratio)” value was at most -4.2.
Regarding GGAUCUUCUCGAUCUAACAAAAAAGACAAAUCUGCCACAAAGCUUGAGAGCAUCUUCGCCUGCAGAGGCGGCAGCCAUCGGUGGAGCGAUAGCGCCAACGUUCUCAACUAUGACACGCAAAACGCGUGCUCCGUUGAAUAGAGCUUAUCAUG [G59C A60C U77A C85A G140A U144C], the “polymerase ribozyme fitness (log ratio)” value was at most -4.2.
Regarding GGAUCUUCUCGAUCUAACAAAAAAGACAAAUCUGCCACAAAGCUUGAGAGCAUCUUCGAAUGCAGAGGCGGCAGCCUUCGGUGGCGCGAUAGCGCCAACGUUCUCAACUAUGACACGCAAAACGCGUGCUCCGUUCAAUGGAGUUUAUCAUG [G59A G136C], the “polymerase ribozyme fitness (log ratio)” value is -2.89.
The result for GGAUCUUCUCGAUCUAACAAAAAAGACAAAUCUGCCACAAAGCUUGAGAGCAUCUUCGCAUGCAGAGGCGGCAGCCUUCGGUGGCGCGAUAGCGCCAACGUUCUCAACUAUGAUACGCAAAACGCGUACUCCGUUGAAUGGUGUUUAUCAUG [G59C C114U G128A A142U] reads -2.5; that for GGAUCUUCUCGAUCUAACAAAAAAGACAAAUCUGCCACAAAGCUUGAGAGCAUCUUCGCAUGCAGAGGCGGCAGCCUUCGGUGGCGCGAUAGUGCCAACGUACUCAACUAUGACACGCAAAACGCGUGCUCCGUUGGAUGGAGUUUAUCAUG [G59C C93U U102A A137G], -3.95; that for GGAUCUUCUCGAUCUAACAAAAAAGACAAAUCUGCCACAAAGCUUGAGAGCAUCUUCGCAUGCAGAGGCGGCAGCCUUCGGUGGCGGGAUAGCGCCAACGUUCUCAACUAUGACAGGCAAAACGCGUGCUCCGUUGAAUGGAUUUUAUCAUG [G59C C87G C116G G143U], at most -4.2.
As for GGAUCUUCUCGAUCUAACAAAAAAGACAAAUCUGCCACAAAGCUUGAGAGCAUCUUCGCAUGCAGAGGCGGCGGCAUUCGGUGGCGCGAUAGCGCCAACGUUCUCAACUAUGAUACGCAAUACGCGUGCUCCGUUGAAUGGAGUUUAUCAUG [G59C A73G C76A C114U A121U], the “polymerase ribozyme fitness (log ratio)” value was at most -4.2.
As for GGAUCUUCUCGAUCUAACAAAAAAGACAAAUCUGCCACAAAGCUUGAGAGCAUCUUCGAAUGCAGAGGCGACAGCCUUCGGUGGCGCGAUAGCGCCAACGUUCUCAACUAUGACACGCAAAACGCGUGCUCCGUUGAAUGCAGUUUAUCAUG [G59A G71A G141C], the “polymerase ribozyme fitness (log ratio)” value is at most -4.2.
Consider GGAUCUUCUCGAUCUAACAAAAAAGACAAAUCUGCCACAAAGCUUGAGAGCAUCUUCGAAUGCAGAGGCGGCAACCUUCGGUAGCGCGAUAGCGCCAACGUUCUCAACUAUGACACGCAAAACGCGUGCUCCGUUGAAUGGAGUUUAUCAUG [G59A G74A G83A], for which the “polymerase ribozyme fitness (log ratio)” value was at most -4.2.
The result for GGAUCUUCUCGAUCUAACAAAAAAGACAAAUCUGCCACAAAGCUUGAGAGCAUCUUCGCAUGCGGAGGCGGCAGCCUUCGGUGACGCGAUAGCGCCAACGUUCUCAACUACGACACGCAAAACGCGUGCUCCGUUGAAUGGAGUUUAUCAUG [G59C A64G G84A U111C] reads at most -4.2.
